These are yes or no findings as the source states them, for the method shown. Binding seen in cells or lysates may run through a third protein. Some results given as binding are weak or reduced against the parent protein; the word gives no strength. Where a sequence is shown, tags or fusion partners need not be part of it.
Legend:
[1] = biological target: wild-type dysferlin C2A-GST fusion protein (aa 1-129 of human dysferlin) (human) (UniProt O75923); assay: pull-down; C2A-GST fusion on glutathione Sepharose 4B; COS-7 lysate with FLAG-MG53 without DTT or NEM, cross-linked with glutaraldehyde (MG53 oligomers including dimers); free Ca2+ of 10 uM (printed 10 mM in the results); 2 hr at 4°C; only the target purified
[2] = biological target: W52R dysferlin C2A-GST fusion protein (aa 1-129 of human dysferlin) (human) (UniProt O75923); assay: condition: only without NEM (MG53 dimers), in the absence of Ca2+; pull-down; C2A-GST fusion on glutathione Sepharose 4B; COS-7 lysate with FLAG-MG53 without DTT or NEM, cross-linked with glutaraldehyde (MG53 oligomers including dimers); absence of Ca2+ or free Ca2+ lower or higher than 10 uM; 2 hr at 4°C; only the target purified
[3] = biological target: V67D dysferlin C2A-GST fusion protein (aa 1-129 of human dysferlin) (human) (UniProt O75923); assay: pull-down; C2A-GST fusion on glutathione Sepharose 4B; COS-7 lysate with FLAG-MG53 supplemented with 5 mM NEM and cross-linked with glutaraldehyde (MG53 oligomers); 75 mM Tris-HCl pH 7.5, 150 mM NaCl, 1% NP-40, 2 mM EGTA, with or without Ca2+; 2 hr at 4°C; only the target purified
[4] = biological target: W52R dysferlin C2A-GST fusion protein (aa 1-129 of human dysferlin) (human) (UniProt O75923); assay: as above
[5] = biological target: wild-type dysferlin C2A-GST fusion protein (aa 1-129 of human dysferlin) (human) (UniProt O75923); assay: as above
[6] = biological target: T1, FLAG-tagged full-length human MG53 (human) (UniProt Q6ZMU5); assay: cross-linking; COS-7 lysate with FLAG-MG53, with 5 mM NEM or without DTT and NEM, 2 mM glutaraldehyde 5 min at room temperature, anti-FLAG immunoblot
T1 sequence: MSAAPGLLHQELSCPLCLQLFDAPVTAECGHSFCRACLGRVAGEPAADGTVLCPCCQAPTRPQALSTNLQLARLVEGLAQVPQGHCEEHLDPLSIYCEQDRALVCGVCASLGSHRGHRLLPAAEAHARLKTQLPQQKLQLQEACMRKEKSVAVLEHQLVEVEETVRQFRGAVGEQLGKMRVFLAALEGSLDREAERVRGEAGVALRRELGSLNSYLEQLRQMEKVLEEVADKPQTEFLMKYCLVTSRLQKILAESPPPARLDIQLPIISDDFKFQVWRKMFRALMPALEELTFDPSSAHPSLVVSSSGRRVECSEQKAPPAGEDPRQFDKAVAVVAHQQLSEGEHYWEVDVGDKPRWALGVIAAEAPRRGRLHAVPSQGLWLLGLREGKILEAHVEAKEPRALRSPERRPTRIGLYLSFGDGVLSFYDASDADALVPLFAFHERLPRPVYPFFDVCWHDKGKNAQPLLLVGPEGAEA

Chains of the proteins cited; added tags and fusions are not shown. Lines headed by an entry give the natural chain unless they say otherwise; changes in a name come on top. Residues count along the entry.
wild-type dysferlin C2A-GST fusion protein (aa 1-129 of human dysferlin) (O75923, residues 1-129): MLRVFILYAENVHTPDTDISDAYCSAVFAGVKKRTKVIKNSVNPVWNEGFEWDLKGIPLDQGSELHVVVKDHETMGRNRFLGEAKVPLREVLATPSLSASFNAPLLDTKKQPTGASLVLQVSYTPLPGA

binding [1]: binds
binding [2]: no binding
binding [3]: binds
binding [4]: binds
binding [5]: binds
binding [6]: binds
B1: FLAG-tagged full-length human MG53 (protein, UniProt Q6ZMU5 1-477)
chain: MSAAPGLLHQELSCPLCLQLFDAPVTAECGHSFCRACLGRVAGEPAADGTVLCPCCQAPTRPQALSTNLQLARLVEGLAQVPQGHCEEHLDPLSIYCEQDRALVCGVCASLGSHRGHRLLPAAEAHARLKTQLPQQKLQLQEACMRKEKSVAVLEHQLVEVEETVRQFRGAVGEQLGKMRVFLAALEGSLDREAERVRGEAGVALRRELGSLNSYLEQLRQMEKVLEEVADKPQTEFLMKYCLVTSRLQKILAESPPPARLDIQLPIISDDFKFQVWRKMFRALMPALEELTFDPSSAHPSLVVSSSGRRVECSEQKAPPAGEDPRQFDKAVAVVAHQQLSEGEHYWEVDVGDKPRWALGVIAAEAPRRGRLHAVPSQGLWLLGLREGKILEAHVEAKEPRALRSPERRPTRIGLYLSFGDGVLSFYDASDADALVPLFAFHERLPRPVYPFFDVCWHDKGKNAQPLLLVGPEGAEA

Reference: paper PMC3493068
